# The BET-seq Pho4 binding data (Le et al. 2018)
# The other results are listed elsewhere or left out. These are noisy estimates, calculated here from bound and input reads.
# Target: T1, Pho4 (S. cerevisiae) (UniProt P07270)
# T1 sequence: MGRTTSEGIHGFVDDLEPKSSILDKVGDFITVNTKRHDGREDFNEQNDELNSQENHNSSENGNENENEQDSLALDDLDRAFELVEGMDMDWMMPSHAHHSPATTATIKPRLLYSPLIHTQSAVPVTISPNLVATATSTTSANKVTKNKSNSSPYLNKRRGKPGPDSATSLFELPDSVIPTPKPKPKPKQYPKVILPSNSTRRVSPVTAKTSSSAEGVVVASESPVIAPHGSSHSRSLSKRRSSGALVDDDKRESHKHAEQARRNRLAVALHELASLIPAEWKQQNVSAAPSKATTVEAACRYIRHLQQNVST
# Test: relative binding free energy (BET-seq); higher = weaker binding
# Settings: reference: library average
row,Sequence,relative binding free energy [kcal/mol]
1,TAGAACACGTGTGTGG,-0.06
2,AGGGGCACGTGTGGAT,0.02
3,CCGGTCACGTGGTTGG,0.09
4,ATGTTCACGTGTATAA,0.24
5,AGAGGCACGTGTTATT,-0.09
6,AAATGCACGTGGGGGG,-0.06
7,TATCGCACGTGGTTAG,-0.05
8,TTCGTCACGTGGGACG,0
9,TGTACCACGTGAAGGA,0.38
10,TAAGTCACGTGATGGA,0.16
11,GGTTGCACGTGGGTTC,-0.03
12,ACTGGCACGTGAATGG,0.06
13,GGGGACACGTGTCATG,-0.06
14,TTTGGCACGTGGAGCG,-0.14
15,TAGTGCACGTGACTAG,0.12
16,TTTATCACGTGCTCTG,0.14
17,TGCGGCACGTGCTTAG,-0.13
18,TGGTGCACGTGGCACG,-0.05
19,AGTTGCACGTGCAGGT,-0.02
20,CCTGGCACGTGTGTGA,0
21,GTCATCACGTGGGATT,0.1

row,Sequence,relative binding free energy [kcal/mol]
1,AATGGCACGTGACGGG,0
2,AGGGGCACGTGATGTC,-0.08
3,TGAGTCACGTGCGTGA,0.03
4,CGGCTCACGTGGAGGG,0.06
5,ATGTACACGTGATGGT,0.15
6,TGGCCCACGTGGGTGT,-0.24
7,GTATTCACGTGAGTGA,0.45
8,GCGGTCACGTGGTTGG,0.2
9,TAGATCACGTGCTTTT,0.06
10,CAGTGCACGTGTAGGA,-0.02
11,TTAGACACGTGGAATG,0.01
12,TACTGCACGTGCGGGT,-0.06
13,GAAGACACGTGTGGTG,0.24
14,TTACACACGTGTTGGT,-0.03
15,TAAAACACGTGTTAGT,-0.06
16,AGTGGCACGTGGGATA,-0.28
17,AGTTACACGTGGAGTA,0.04
18,CTGGTCACGTGGTAGT,-0.03
19,GTTGTCACGTGTCGCG,0.05
20,ATGGTCACGTGCGTTC,0.1
21,AGATTCACGTGGGCAT,0.31

row,Sequence,relative binding free energy [kcal/mol]
1,AGGCACACGTGTGGGT,0.05
2,GGGGACACGTGAAAAG,0.42
3,ATCGGCACGTGAGAGT,0.18
4,CTGTTCACGTGGTTGT,0.31
5,ATGGACACGTGGGGAA,-0.12
6,ATGCTCACGTGGTGTA,0.06
7,TACGTCACGTGTGTTC,0.21
8,ATTATCACGTGGATGC,0.07
9,TTAGTCACGTGATATA,0.25
10,GTCTGCACGTGTGAGG,0.01
11,AGTGGCACGTGAAGGT,0.14
12,TTTCGCACGTGGTATG,-0.17
13,ATGATCACGTGTGAGC,0.24
14,GTTGTCACGTGTAGCT,0.06
15,GAAATCACGTGGGGGC,0.08
16,ATGGGCACGTGGAGGC,-0.02
17,TTGGACACGTGAGCAT,0.38
18,GGATGCACGTGGGCAG,-0.11
19,CTTGTCACGTGTATAG,0.04
20,GGGTGCACGTGGGGAC,-0.14
21,GGTTTCACGTGGTGGG,0.33
